The record followed here is article PMC12291137, “Designing Catalysts to Accelerate a Protein–Peptide Assembly-Reaction Cascade” (ACS Central Science, 2025).

Test [1] addresses catalyst C (CaM-SrtA), fusion of calmodulin and sortase A. Put plainly: microkinetic model fitted to reaction kinetics (SDS-PAGE densitometry). The following applies: both partners purified.
The target in test [2] is calmodulin (CaM) (UniProt P0DP23). Put plainly: ITC; CaM (200 μM) titrated into B or P (18 μM); the paper calls K_a(c) an apparent binding constant. The following applies: both partners purified. In general terms: In ITC the heat of successive injections is recorded.

B1: substrate B (SpyCatcher-M13-LPETG-SpyTag(DA)), with the original M13 (M13-1) (other)
chain: not shown
In test [1], B1 showed a koff of 0.01 s⁻¹ and a kon of 4800 M⁻¹ s⁻¹. For the same molecule, the Ka in test [2] is 480000 M⁻¹.

A word on the koff: it is the first-order rate constant of dissociation. What is called kon is the rate constant with which the complex forms. Low values mean slower complex formation, high ones faster complex formation.
